Experimental data as given in publication PMC4943851.
These are yes or no findings as the source states them, for the method shown. In cells and extracts the contact can be indirect. Some entries that bind do so weakly or less than the wild type. One block for each substance: values may come before it.

Sequences of proteins named here, by UniProt entry; tags and fusion partners are left off. A change or cut given only in a name is not applied to a line headed by its entry. A line that says so, or that is headed by a name, gives the form on record, which may keep a tag or linker. Residues count along the entry.
UniProt Q00987: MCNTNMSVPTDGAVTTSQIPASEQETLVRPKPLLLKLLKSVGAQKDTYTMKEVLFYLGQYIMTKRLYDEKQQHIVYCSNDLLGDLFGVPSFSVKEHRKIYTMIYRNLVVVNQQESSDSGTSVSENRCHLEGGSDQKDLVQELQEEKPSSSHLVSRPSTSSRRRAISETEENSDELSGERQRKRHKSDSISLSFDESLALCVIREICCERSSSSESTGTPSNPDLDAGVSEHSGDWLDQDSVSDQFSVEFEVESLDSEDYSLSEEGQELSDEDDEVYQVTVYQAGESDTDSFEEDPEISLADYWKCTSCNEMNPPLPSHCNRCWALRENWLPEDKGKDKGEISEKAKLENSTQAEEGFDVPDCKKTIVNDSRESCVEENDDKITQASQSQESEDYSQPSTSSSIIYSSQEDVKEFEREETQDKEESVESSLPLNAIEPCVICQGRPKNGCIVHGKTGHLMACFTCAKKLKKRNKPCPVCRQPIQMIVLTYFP
GST-tagged MDM2 fragment aa 1-301: residues 1-301 of Q00987
GST-tagged MDM2 fragment aa 1-150: residues 1-150 of Q00987
GST-tagged MDM2 fragment aa 284-491: residues 284-491 of Q00987
UniProt P08138: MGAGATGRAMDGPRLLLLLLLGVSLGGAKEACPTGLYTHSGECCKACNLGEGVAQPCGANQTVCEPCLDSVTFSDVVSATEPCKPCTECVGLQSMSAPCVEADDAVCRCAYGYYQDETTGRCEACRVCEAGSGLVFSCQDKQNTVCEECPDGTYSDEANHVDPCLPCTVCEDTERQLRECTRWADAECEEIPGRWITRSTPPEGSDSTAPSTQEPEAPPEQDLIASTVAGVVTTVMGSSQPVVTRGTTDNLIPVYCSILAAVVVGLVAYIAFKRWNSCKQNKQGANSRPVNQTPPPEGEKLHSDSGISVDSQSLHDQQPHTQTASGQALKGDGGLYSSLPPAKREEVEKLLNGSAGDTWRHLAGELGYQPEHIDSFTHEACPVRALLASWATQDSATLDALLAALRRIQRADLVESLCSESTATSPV

Tests used:
[1] = target: endogenous MDM2 (SK-N-SH cells) (human (endogenous in SK-N-SH)) (UniProt Q00987); assay: co-IP; endogenous proteins of SK-N-SH cells treated with Doxorubicin for 12 hr and MG132 for 6 hr; immunoblot
[2] = target: endogenous p53 (SK-N-SH cells) (human (endogenous in SK-N-SH)) (UniProt P04637); assay: as above
[3] = target: Flag-MDM2 (UniProt Q00987); assay: co-IP; H1299 cells transfected with the tagged plasmids; ~500 to 1000 ug of proteins incubated with the indicated antibody at 4°C for 4 hr or overnight, protein A or G beads, washed at least three times with lysis buffer; immunoblot
[4] = target: Flag-p53 (UniProt P04637); assay: as above
[5] = target: HA-MDM2 (UniProt Q00987); assay: as above
[6] = target: V5-tagged MDM2 fragment aa 1-150 (UniProt Q00987); assay: as above
[7] = target: V5-tagged MDM2 fragment aa 1-301 (UniProt Q00987); assay: as above
[8] = target: V5-tagged MDM2 fragment aa 284-491 (UniProt Q00987); assay: as above
[9] = target: flag-tagged p53 fragment aa 101-300 (UniProt P04637); assay: as above
[10] = target: p53 (untagged, ectopic, H1299) (UniProt P04637); assay: as above
[11] = target: GST-tagged MDM2 fragment aa 1-150 (UniProt Q00987); assay: pull-down; 500 ng of GST-MDM2 fragments, GST-p53 fragments or GST only on glutathione-Sepharose 4B beads, incubated with cell lysates with mammalian-expressed Myc-NGFR at 4°C for 4 hr; washed three times with GST lysis buffer (50 mM Tris/HCl pH 8.0, 0.5% NP-40, 1 mM EDTA, 150 mM NaCl, 10% glycerol); immunoblot with anti-NGFR; only the target purified
[12] = target: GST-tagged MDM2 fragment aa 1-301 (UniProt Q00987); assay: as above
[13] = target: GST-tagged MDM2 fragment aa 284-491 (UniProt Q00987); assay: as above
[14] = target: GST-tagged full-length p53 (UniProt P04637); assay: as above
[15] = target: GST-tagged p53 fragment aa 100-290 (UniProt P04637); assay: as above
[16] = target: V5-p53 (UniProt P04637); assay: co-IP; H1299 cells transfected with the tagged plasmids; ~500 to 1000 ug of proteins incubated with the indicated antibody at 4°C for 4 hr or overnight, protein A or G beads, washed at least three times with lysis buffer; immunoblot
[17] = target: p53 (untagged, ectopic, in MEF p53-/-;Mdm2-/- cells) (UniProt P04637); assay: co-IP; MEF p53-/-;Mdm2-/- cells transfected with plasmids encoding Myc-NGFR or p53, alone or together; immunoblot
[18] = target: endogenous MDM2 (H460 cells) (human (endogenous in H460)) (UniProt Q00987); assay: co-IP; nuclear fraction of H460 cells stably expressing NGFR; immunoblot
[19] = target: endogenous p53 (H460 cells) (human (endogenous in H460)) (UniProt P04637); assay: as above
[20] = target: endogenous MDM2 (SK-MEL-147 cells) (human (endogenous in SK-MEL-147)) (UniProt Q00987); assay: co-IP; nuclear fraction of SK-MEL-147 cells, endogenous proteins, reciprocal; immunoblot
[21] = target: endogenous p53 (SK-MEL-147 cells) (human (endogenous in SK-MEL-147)) (UniProt P04637); assay: as above

binding [1]: binds
binding [2]: binds
Substance: endogenous NGFR (SK-N-SH cells) (from UniProt P08138 29-427) (receptor)

binding [17]: binds
Substance: Myc-NGFR (in MEF p53-/-;Mdm2-/- cells) (from UniProt P08138 29-427) (receptor)

binding [18]: binds
binding [19]: binds
Substance: NGFR stably expressed in H460 cells (from UniProt P08138 29-427) (receptor)

binding [20]: binds
binding [21]: binds
Substance: endogenous NGFR (SK-MEL-147 cells) (from UniProt P08138 29-427) (receptor)

The remaining lines, values behind:

Substance: Myc-NGFR (nerve growth factor receptor) (from UniProt P08138 29-427)
binding [3]: binds
binding [4]: binds
binding [5]: binds
binding [6]: no binding
binding [7]: no binding
binding [8]: binds
binding [9]: binds
binding [10]: binds
binding [11]: no binding
binding [12]: no binding
binding [13]: binds
binding [14]: binds
binding [15]: binds

Substance: Myc-tagged NGFR fragment aa 1-272 (from UniProt P08138 29-272) (domain or fragment)
binding [3]: binds
binding [16]: binds

Substance: Myc-tagged NGFR fragment aa 273-427 (from UniProt P08138 273-427) (domain or fragment)
binding [3]: no binding
